Experimental data taken from patent US4605658A (priority 1983, dated 1986).

How the values were obtained:
Test in all cases: microbe, parasite or virus in culture
[1] = tested on: Vesicular stomatitis virus; assay type: cell-based; details: PRK, read-out: Minimum inhibitory concentration
[2] = tested on: Herpes simplex virus-1 (KOS); details: Human alphaherpesvirus 1, PRK; read-out: Minimum inhibitory concentration
[3] = tested on: Coxsackie B4; details: Enterovirus B, B4, PRK; read-out: MIC50

SMILES | EC50 [1] | EC50 [2] | EC50 [3]
Nc1ncnc2c1ncn2CC(O)CO (racemic) [(RS)--DHPA, 9-(2,3-dihydroxypropyl)adenine, reference compound] | 15 to 30 mg/L (≈ 71.7 to 143 µM) | > 400 mg/L | 
COC(=O)C(O)Cn1cnc2c(N)ncnc21 (racemic) [Compound 1, methylester of 3-(adenin-9-yl)-2-hydroxypropanoic acid] | 3 mg/L (≈ 12.6 µM) | > 400 mg/L | > 400 mg/L
CCOC(=O)C(O)Cn1cnc2c(N)ncnc21 (racemic) [Compound 2] | 1 mg/L (≈ 3.98 µM) | > 400 mg/L | 
CCCOC(=O)C(O)Cn1cnc2c(N)ncnc21 (racemic) [Compound 3] | 1 to 3 mg/L (≈ 3.77 to 11.3 µM) | > 100 mg/L | 
CC(C)OC(=O)C(O)Cn1cnc2c(N)ncnc21 (racemic) [Compound 4] | 3 mg/L (≈ 11.3 µM) | > 400 mg/L | 
CCCCOC(=O)C(O)Cn1cnc2c(N)ncnc21 (racemic) [Compound 5] | 3 mg/L (≈ 10.7 µM) | > 200 mg/L | 
CCC(C)OC(=O)C(O)Cn1cnc2c(N)ncnc21 (racemic) [Compound 6] | 1 mg/L (≈ 3.58 µM) | > 400 mg/L | 
CC(C)COC(=O)C(O)Cn1cnc2c(N)ncnc21 (racemic) [Compound 7] | 1 to 3 mg/L (≈ 3.58 to 10.7 µM) | > 400 mg/L | 
CC(C)CCOC(=O)C(O)Cn1cnc2c(N)ncnc21 (racemic) [Compound 8] | 3 mg/L (≈ 10.2 µM) | > 400 mg/L | 
CCCCCCCCOC(=O)C(O)Cn1cnc2c(N)ncnc21 (racemic) [Compound 9] | 7 mg/L (≈ 20.9 µM) | > 100 mg/L | 
COCCOC(=O)C(O)Cn1cnc2c(N)ncnc21 (racemic) [Compound 10] | 7 mg/L (≈ 24.9 µM) | > 400 mg/L | 
Nc1ncnc2c1ncn2CC(O)C(=O)OC1CCCCC1 (racemic) [Compound 11] | 1 mg/L (≈ 3.28 µM) | > 100 mg/L | 
Nc1ncnc2c1ncn2C[C@H](O)CO [(S)--DHPA, 9-(2,3-dihydroxypropyl)adenine, reference compound] | 15 to 30 mg/L (≈ 71.7 to 143 µM) | > 400 mg/L | 100 mg/L (≈ 478 µM)
CCOC(=O)[C@@H](O)Cn1cnc2c(N)ncnc21 [C2 H5 (S)] |  |  | > 400 mg/L
COC(=O)[C@H](O)Cn1cnc2c(N)ncnc21 [CH3 (R), methylester of 3-(adenin-9-yl)-2-hydroxypropanoic acid] |  |  | 150 mg/L (≈ 632 µM)
COC(=O)[C@@H](O)Cn1cnc2c(N)ncnc21 [CH3 (S), methylester of 3-(adenin-9-yl)-2-hydroxypropanoic acid] |  |  | 150 mg/L (≈ 632 µM)

Converted amounts (≈) assume the structure as drawn.
